Measured values from PubChem BioAssay AID886 (National Center for Advancing Translational Sciences (NCATS), 2007).
The whole screen tested about 73,000 compounds, of which about 2,500 (3.4%) were called active. This list was built around the results that the source calls inconclusive (neither active nor inactive); the mix of calls is not that of the screen. Calls follow the shape of the dose curve; as a rule, active = well fitted inhibition curve with a large enough effect; inconclusive = small, poorly fitted or top-dose-only effect; inactive = no such curve, though single readings can be large or run the other way. Potencies of inconclusive entries are doubtful fits and often do not repeat.

Each compound was assayed against 3-hydroxyacyl-CoA dehydrogenase type-2 (Homo sapiens) (UniProt Q99714) (assay: qHTS Assay for Inhibitors of HADH2 (Hydroxyacyl-Coenzyme A Dehydrogenase, Type II)). Settings: recombinant HADH2, NADH fluorescence, beta-hydroxybutyryl-CoA; series mostly up to 57.1 µM.
UniProt Q99714, sequence (Q99714 whole entry, looked up): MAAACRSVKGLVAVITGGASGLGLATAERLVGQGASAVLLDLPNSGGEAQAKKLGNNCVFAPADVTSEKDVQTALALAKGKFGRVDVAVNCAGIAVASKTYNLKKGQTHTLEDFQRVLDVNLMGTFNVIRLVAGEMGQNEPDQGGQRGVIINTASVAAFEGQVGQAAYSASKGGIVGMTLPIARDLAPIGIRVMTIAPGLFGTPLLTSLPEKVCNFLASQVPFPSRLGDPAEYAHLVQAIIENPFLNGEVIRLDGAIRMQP
UniProt Q99714, sequence (Q99714 whole entry, looked up): as above
Procedure, shortened: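 NADH fluorescence (ex 360/em 450 nm) read every 30 s for 4 min; activity taken as last-minus-first time point difference. Enzyme 20 nM, NAD+ 1 mM, beta-hydroxybutyryl-CoA 90 uM, pH 9.0 Tris buffer.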
Also: nearly all actives have a fitted effect of over 60% in size.
Potency is read from the fitted curve at half-maximal effect; tags tell the direction and shape of the fitted curve.

SMILES | Potency
N#Cc1cnn(Cc2ccccc2)c1/N=C/N1CCOCC1 | inconclusive: 0.251 µM [inhibitor, full curve, poor fit]
O=C(CSc1oc(-c2ccco2)nc1S(=O)(=O)c1ccccc1)NCC1CCCO1 (stereo not drawn) | inconclusive: 25.1 µM [inhibitor, single point]
Cn1cnnc1SCC(=O)N1c2ccccc2-c2c(ssc2=S)C1(C)C | inconclusive: 39.8 µM [inhibitor, single point]
C/C(=N\O)c1ccc2c3c([nH]c2c1)CCCC3 | active: 31.6 µM
O=c1ccc2ccc(O)c(O)c2o1 | inconclusive: 10 µM [inhibitor, partial curve]
Cc1cc(=O)oc2cc(OCC(O)CN3CCN(c4ccccc4)CC3)ccc12 (stereo not drawn) | inconclusive: 25.1 µM [inhibitor, single point]
COc1ccc(OC(C)C(=O)N2CCN(c3ccccn3)CC2)cc1 (stereo not drawn) | inconclusive: 7.94 µM [inhibitor, single point]
CCOC(=O)c1ccc2nc(NC(=O)c3ccco3)sc2c1 | inactive
O=C(COC(=O)c1ccccc1Nc1ccccc1)NCc1ccco1 | inactive
CCCc1[nH]nc2c1C(c1ccc(OCCN3CCOCC3)c(OC)c1)C(C#N)=C(N)O2 (stereo not drawn) | inactive
CCOC(=O)CSc1nc2c(c(=O)n(C)c(=O)n2C)n1CCCc1ccccc1 | inactive
c1ccc(CNc2ncncc2-c2ccc3c(c2)OCO3)cc1 | inconclusive: 25.1 µM [inhibitor, single point]
Cc1ccc(C=Nc2ccc(N(C)C)cc2)o1 | inconclusive: 2 µM [inhibitor, full curve]
N#C/C(=C\c1ccc(O)c(O)c1)C(N)=O | active: 31.6 µM
O=C(Nc1ccccc1N1CCCC1)c1ccco1 | inactive
CCOc1ccc(C(=O)Nc2ccc(N3CCCC3)cc2)cc1 | inconclusive: 0.0316 µM [inhibitor, full curve, poor fit]
CCOC(=O)C1CCCN(C(=O)c2ccccc2SCCOC)C1 (stereo not drawn) | active: 12.6 µM
Cc1sc2ncnc(SCc3ccco3)c2c1C | inactive
Cc1noc(C)c1C(=O)N1CCC[C@@]2(CCN(C(=O)NC(C)C)C2)C1 | inactive
Cc1c(C)c2cc(Cl)c(O)c(CN(C)C)c2oc1=O | active: 3.16 µM
CC(C)C(=O)Nc1cccc(C(=O)NCc2ccc3c(c2)OCO3)c1 | inconclusive: 39.8 µM [inhibitor, single point]
CC(C)C[C@@H](CC(=O)N[C@@H](CCC(=O)O)CC(=O)O)NC(=O)[C@@H]1CNCC[C@H]1NC(=O)C[C@H](CCCN)NC(=O)C[C@H](Cc1ccccc1)NC(=O)[C@@H]1CNCC[C@H]1N | inactive
CCOc1ccc2nc(-c3ccccc3)[nH]c2c1 | inconclusive: 39.8 µM [inhibitor, single point]
CCCCCOC(=O)CSc1nc2c(c(=O)[nH]c(=O)n2C)n1CCc1ccccc1 | inconclusive: 12.6 µM [inhibitor, partial curve]

SMILES | Potency
CCOC(=O)C1=C(C)NC2=C(C(=O)CCC2)C1c1cccnc1 (stereo not drawn) | inconclusive: 39.8 µM [inhibitor, single point]
Cc1ccc(S(=O)(=O)N(CC(=O)NCc2ccncc2)C2CCCCC2)cc1 | inactive
CCN1CCN(C(=O)CN(c2ccccc2C)S(C)(=O)=O)CC1 | inactive
CCNc1ncc2nc(C)c(=O)n(Cc3cccs3)c2n1 | inactive
Fc1ccc2c(c1)[C@H]1OCC[C@H]1[C@@H](c1ccco1)N2 | inconclusive: 39.8 µM [inhibitor, single point]
CN1CCC[C@@H]1c1cccnc1.O=C(O)c1ccccc1O.O=C([OH2+])c1ccccc1O.O=C([OH2+])c1ccccc1O.O=C([OH2+])c1ccccc1O.[Cu] | inconclusive: 3.16 µM [inhibitor, single point]
O=C(OCc1cccs1)c1ccccc1NS(=O)(=O)c1ccc2c(c1)OCCO2 | inactive
CN1CCc2ccccc2Cc2[nH]c3ccccc3c2CC1 | inactive
CCNC(=O)[C@@H]1O[C@@H](n2cnc3c(N)nc(NCCc4ccc(CCC(=O)O)cc4)nc32)[C@H](O)[C@@H]1O | inconclusive: 7.94 µM [inhibitor, single point]
CCN1CCN(C(=O)c2ccc3c(=O)n(CCC4=CCCCC4)c(=O)[nH]c3c2)CC1 | inactive
O=C(CSc1nnc(Cc2cccs2)n1-c1ccccc1)NC1CCCCC1 | inconclusive: 7.94 µM [inhibitor, full curve]
O.O.O.O.O.O.O.O=S(=O)([O-])[O-].[Co+2] | inconclusive: 31.6 µM [inhibitor, partial curve, poor fit]
O=C(Nc1cc2nn(-c3ccccc3)nc2cc1Cl)c1ccco1 | active: 31.6 µM
CC(C)(C)NC(=O)CN(C(=O)C1(C)CC(=O)N=C2C=CC=CN21)C1CCCC1 (stereo not drawn) | inconclusive: 31.6 µM [inhibitor, single point]
CCNC(=O)c1cc2c(=O)n3cccc(C)c3nc2n1C | inconclusive: 7.94 µM [inhibitor, full curve]
COC(=O)c1ccc2nc(NC(=O)CN3C(=O)CCC3=O)sc2c1 | active: 25.1 µM
O=C(O)CCc1ccc(-c2ccc(Br)cc2)o1 | inconclusive: 25.1 µM [inhibitor, single point]
Cn1c(C(=O)N2CCc3ccccc3C2)cc2c(=O)n3ccccc3nc21 | inconclusive: 3.16 µM [inhibitor, single point]
N#CC1=C(N)N(c2ccccc2)C2=C(C(=O)CCC2)C1c1cccs1 (stereo not drawn) | active: 12.6 µM
CCN(CC)S(=O)(=O)c1cccc(C(=O)NC2CCCCC2)c1 | inconclusive: 7.94 µM [inhibitor, single point]
CC(=O)C1=C(C)Nc2cc(C(F)(F)F)ccc2S1 | active: 25.1 µM
CCCOc1ccc(CC(=O)NCc2ccco2)cc1OC | inconclusive: 31.6 µM [inhibitor, single point]
O=C(Nc1nc(SCc2ccc(F)cc2)ns1)c1ccco1 | inconclusive: 31.6 µM [inhibitor, single point]
COc1cccc(C(=O)SC2=NCCS2)c1 | inconclusive: 39.8 µM [inhibitor, single point]
